Values quoted from earlier work as cited in patent US20240156960A1 (priority 2020, published 2024).

Experiments:
[1] = target: SARS-CoV2 S; RBD (Severe acute respiratory syndrome coronavirus 2); details: epitope S

B1: C019 (antibody, listed as Homo sapiens, V domains shown)
VH: QVQLVQSGAEVKKPGASVKVSCKASGYTFTSYYMHWVRQAPGQGLEWMGIINPSGGSTSYAQKFQGRVTMTRDTSTSTVYMELSSLRSEDTAVYYCARVPREGTPGFDPWGQGTLVTVSS
VL: [about 100 residues cut from this listing]
SARS-CoV1
  Not Neutralising Vs: SARS-CoV1,
[1]
  Binds to: SARS-CoV2

B2: C031 (antibody, listed as Homo sapiens, V domains shown)
VH: EVQLVESGGGLVQPGGSLRLSCAASGFTFSSYDMHWVRQATGKGLEWVSAIGTAGDTYYPGSVKGRFTISRENAKNSLYLQMNSLRAGDTAVYYCARVGYDSSGYSGWYFDLWGRGTLVTVSS
VL: [about 100 residues cut from this listing]PLTFGGGTKVEIK
SARS-CoV1
  Not Neutralising Vs: SARS-CoV1,
[1]
  Binds to: SARS-CoV2
